Measured values from PMC4336329 (PLoS ONE, 2015).
In all, about 310,000 compounds went through this assay and about 2,200 (0.71%) showed an effect of 50% or more. Effects have a minus sign here. The list shows a part of the results.

What follows are molecules tested against human ether-à-go-go-related gene (hERG) potassium channel (human, UniProt Q12809) (assay: primary screen, population patch clamp on CHO cells stably expressing hERG).
Sequence of human ether-à-go-go-related gene (hERG) potassium channel (Q12809 whole entry, looked up): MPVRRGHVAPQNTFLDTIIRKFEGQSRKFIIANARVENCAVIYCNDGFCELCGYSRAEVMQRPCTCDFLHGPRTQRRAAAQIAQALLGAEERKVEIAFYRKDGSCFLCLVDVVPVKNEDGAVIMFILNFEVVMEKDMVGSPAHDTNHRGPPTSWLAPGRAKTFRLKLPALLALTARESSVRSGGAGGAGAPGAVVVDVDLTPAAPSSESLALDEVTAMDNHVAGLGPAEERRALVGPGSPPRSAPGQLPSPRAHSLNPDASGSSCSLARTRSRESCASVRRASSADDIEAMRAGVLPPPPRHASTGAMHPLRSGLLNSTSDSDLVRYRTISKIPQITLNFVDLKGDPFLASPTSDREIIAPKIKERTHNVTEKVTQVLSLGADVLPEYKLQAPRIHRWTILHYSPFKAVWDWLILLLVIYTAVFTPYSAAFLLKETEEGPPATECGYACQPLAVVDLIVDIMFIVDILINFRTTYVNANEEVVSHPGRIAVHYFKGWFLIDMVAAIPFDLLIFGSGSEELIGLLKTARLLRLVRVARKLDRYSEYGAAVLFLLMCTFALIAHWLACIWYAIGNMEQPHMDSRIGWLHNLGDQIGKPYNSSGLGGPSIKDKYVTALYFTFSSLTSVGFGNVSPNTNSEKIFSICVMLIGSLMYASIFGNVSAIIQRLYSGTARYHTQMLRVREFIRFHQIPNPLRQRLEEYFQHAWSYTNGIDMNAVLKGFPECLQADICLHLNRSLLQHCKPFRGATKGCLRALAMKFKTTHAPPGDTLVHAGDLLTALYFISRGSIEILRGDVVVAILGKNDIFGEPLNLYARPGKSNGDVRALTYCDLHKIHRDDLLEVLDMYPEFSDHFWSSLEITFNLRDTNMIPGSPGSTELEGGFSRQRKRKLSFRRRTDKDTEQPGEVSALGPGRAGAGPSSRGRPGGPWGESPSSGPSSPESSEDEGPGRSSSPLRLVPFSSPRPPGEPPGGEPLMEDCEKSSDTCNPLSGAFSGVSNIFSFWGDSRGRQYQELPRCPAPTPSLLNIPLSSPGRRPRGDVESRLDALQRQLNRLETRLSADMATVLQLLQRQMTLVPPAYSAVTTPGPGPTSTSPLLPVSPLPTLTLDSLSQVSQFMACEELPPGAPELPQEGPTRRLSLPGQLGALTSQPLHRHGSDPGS

In order of rising “hERG current change (%, negative = inhibition) at 1uM” value:
1. CC1CCCCN1C(=O)COC(=O)C1CCN(S(=O)(=O)c2c(Cl)cccc2Cl)CC1 (stereo not shown)  -21%
2. CCn1c(CNc2ccc(F)cc2)nnc1SCC(=O)OC1CCCCC1  -20.2%
3. O=C1N(Cc2cccnc2)C[C@@H]2C[C@@H](c3cccc(OCc4ccccc4)c3)N3CCC[C@@]123  -17.8%
4. c1coc(Cn2c(SCc3nc4ccccc4[nH]3)nnc2-c2cccs2)c1  -9.01%
5. Cc1ccc2cc(CN(CCN3CCCC3)C(=O)Nc3ccc(F)cc3)c(=O)[nH]c2c1C  -8.93%
6. N#Cc1c(-c2ccccc2)nc(-c2ccncc2)[nH]c1=O  -8.61%
7. CC(=O)Nc1ccc(S(=O)(=O)Nc2nc(-c3ccc(C(C)(C)C)cc3)cs2)cc1  -3.26%
8. COc1cccc(NC(=O)CCc2ccccc2)c1  -2.39%
9. CSCCC(NC(=O)C1CCC(C)CC1)C(=O)NCc1ccco1 (stereo not shown)  -2.35%
10. Cc1cc(C(F)(F)F)cc(NNC(=O)NC(=O)c2c(F)cccc2Cl)n1  -0.544%
11. Cc1c(C)c2c(OCC(=O)N3CCC(C(=O)O)CC3)cc3c(c2oc1=O)CCC(C)(C)O3  -0.492%
12. COc1ccccc1N1CCN(C(CNS(=O)(=O)c2ccc(C)cc2)c2cccnc2)CC1 (stereo not shown)  -0.447%
13. COc1ccc(/C=N/Nc2nnc(Cc3ccccc3)c(=O)[nH]2)cc1  -0.382%
14. Cc1ccc2c(c1)c(CC(=O)Nc1ccc(C)c(F)c1)c(C(=O)O)n2C  -0.143%
15. Cc1ccc(OCC(=O)Nc2ccc(N3CCOCC3)cc2)cc1  -0.0361%
16. Cc1cc2nn(-c3ccccc3)nc2cc1NC(=O)c1cccs1  0.654%
17. O=C(c1cc(S(=O)(=O)N2CCC3(CC2)OCCO3)ccc1F)N1CCCCC1  0.881%
18. CCOc1ccc(C(=O)NNC(=O)CN2C(=O)NC3(CCCC3)C2=O)cc1  0.935%
19. CCC(=O)N1CCN(c2ccc(NC(=O)c3cc4ccccc4o3)cc2)CC1  1.12%
20. CC(C)c1ccc(C(CC(=O)O)N2Cc3ccccc3C2=O)cc1 (stereo not shown)  1.35%
21. NC(=O)C1CCN(C(=O)CN(c2ccc3c(c2)OCCO3)S(=O)(=O)c2ccccc2)CC1  1.49%
22. CN(c1ccccc1)S(=O)(=O)c1ccc(NC(=O)c2ccccc2)cc1  3.08%
23. COc1ccccc1N(CC(=O)NC1CCCCC1)C(=O)CCC(=O)Nc1ccccn1  3.09%
24. N/C(CC(=O)Nc1cc(C(F)(F)F)ccc1Cl)=N\O  3.11%
25. CC1CN(S(=O)(=O)c2cccc(C(=O)NCc3ccc4c(c3)OCO4)c2)CC(C)O1 (stereo not shown)  3.8%
26. Cc1cc(NC(=O)CCC(=O)N(c2cccc(F)c2)C(C(=O)NC2CCCC2)c2ccc(C)o2)no1 (stereo not shown)  4.39%
27. O=C(CN(c1ccccc1)S(=O)(=O)c1ccccc1)NCCSCc1ccco1  5.01%
28. CCC(=O)Nc1nc2ccc(S(C)(=O)=O)cc2s1  5.06%
29. Cc1cc(NC(=O)CN2C(=O)/C(=C/c3cccc(Br)c3)SC2=S)no1  5.26%
30. Cc1onc(-c2c(Cl)cccc2Cl)c1C(=O)N/N=C(\N)COc1ccc(Cl)cc1  7.1%
31. C/C(Cn1nc([N+](=O)[O-])cc1C)=N\NC(=O)COc1ccccc1[N+](=O)[O-]  7.38%
32. N#Cc1ccc(Cl)cc1NC(=O)COC(=O)c1ccc2c(c1)OCCO2  7.44%
33. N#C/C(=C\c1cn(-c2ccccc2)nc1-c1ccccc1)S(=O)(=O)c1ccccc1  7.49%
34. CCCCC(=O)N1C/C=C\[C@H](c2ccc(OC)cc2)N(Cc2ccc(F)cc2)C(=O)[C@@H]1C  7.61%
35. CC(C)CN(C(=O)CCNC(=O)c1ccc(Cl)cc1)c1c(N)n(CC(C)C)c(=O)[nH]c1=O  7.65%
36. COc1ccccc1-c1cc(C(F)(F)F)nc(NCc2ccco2)n1  7.9%
37. CCOC(=O)Cc1c(C)nc2c(-c3ccc(Cl)cc3)c[nH]n2c1=O  8.09%
38. O=C(NNC(=S)NCc1ccc(Cl)cc1)c1cccnc1  8.09%
39. O=C(NCc1cccs1)c1cc(S(=O)(=O)N2CCCCC2)ccc1Cl  8.11%
40. CC1CN(C(=O)c2cccc(S(=O)(=O)Nc3ccccc3Cl)c2)CC(C)O1 (stereo not shown)  8.3%
41. CCCCN(C)CCCNC(=O)c1ccc(N2CCCC2=O)cc1  8.33%
42. COc1ccc(Cc2nnc(SCC(=O)NCc3ccco3)o2)cc1  8.45%
43. Cc1cccc(OCC(O)Cn2c(N3CCCCC3)nc3c2c(=O)n(C)c(=O)n3C)c1 (stereo not shown)  9.01%
44. CCc1c(C)c2ccc(OC(C)C(=O)NC(Cc3c[nH]c4ccc(O)cc34)C(=O)O)c(C)c2oc1=O (stereo not shown)  9.05%
45. CCCOc1ccc(N2C(=O)CC(N3CCN(c4nc5ccccc5s4)CC3)C2=O)cc1 (stereo not shown)  9.08%
46. CN(c1ccccc1)S(=O)(=O)c1cccc(NC(=O)CSc2n[nH]c(N)n2)c1  9.25%
47. Cc1ccc2[nH]c(=O)c(CN(CC3CCCO3)C(=S)Nc3ccccc3)cc2c1 (stereo not shown)  9.42%
48. CC(C)CCNC(=O)c1cc(-c2ccncc2)nc2ccc(S(=O)(=O)N3CCOCC3)cc12  9.43%
49. CN(C)c1ccccc1C(=O)N1CCCC(Nc2ccc(F)cc2)C1 (stereo not shown)  9.52%
50. Clc1ccc(CSc2snnc2-c2ccccc2)cc1  9.74%
51. COc1ccc(C(c2oc(CO)cc(=O)c2O)c2oc(CO)cc(=O)c2O)cc1OC  10.1%
52. N#C/C(=C\C=C\c1ccccc1[N+](=O)[O-])C(=O)NC1CCCCC1  10.3%
53. CCOC(=O)C1=C(O)C(=O)N(c2ccc(S(N)(=O)=O)cc2)C1c1ccc(Cl)cc1 (stereo not shown)  10.4%
54. Cc1ccc(OCC(=O)N2c3ccccc3CC2C)c([N+](=O)[O-])n1 (stereo not shown)  10.5%
55. COc1ccc(-c2cc(C#N)nc(N3CCN(c4ccccc4)CC3)n2)cc1  11.2%
56. N#C/C(=C\c1ccc([N+](=O)[O-])cc1)c1nc(C2CC2)cs1  11.2%
57. COc1ccc(OCCCC(=O)Nc2cccc([N+](=O)[O-])c2)cc1  11.2%
58. O=C(CC(c1ccccc1)c1cc(Br)ccc1O)N1CCCCC1 (stereo not shown)  11.7%
59. O=c1c2ccccc2nc(CN2CCOCC2)n1-c1ccccc1F  11.8%
60. COc1cc(C2NC(=O)NC(C)=C2C(=O)OC2CCC(C)CC2)ccc1O (stereo not shown)  12.1%
61. O=C(NCCc1ccccc1)C1CCN(S(=O)(=O)c2cccnc2)CC1  12.3%
62. COc1ccc(-c2oc3ccccc3c(=O)c2OC(=O)c2ccc(C)cc2)cc1  12.6%
63. CCOC(=O)Cn1nc(C)n(-c2cccc(Cl)c2)c1=O  13%
64. COc1ccc(N(C(=O)c2cccnc2)S(=O)(=O)c2cccs2)cc1  13%
65. O=C(Nc1ccc(Br)cc1Cl)N1CCOCC1  13%
66. CC(=O)NC(=S)NNC(=O)c1ccc(Br)cc1  13.3%
67. O=[S@]1Oc2ccccc2-c2ccccc21  13.4%
68. O=C(COC(=O)/C=C/c1ccccc1Cl)NC(=O)NCc1ccccc1  13.4%
69. COc1ccc(NC(=O)C2CCCCN2N)cc1OC (stereo not shown)  13.5%
70. CCn1c(SCC(=O)Nc2cc(S(=O)(=O)N3CCOCC3)ccc2OC)nnc1-c1ccncc1  13.7%
71. CCN(CC(=O)Nc1cc(Cl)ccc1C)C(=O)c1cc(S(=O)(=O)N2CCCCCC2)ccc1OC  14.1%
72. COc1ccc(Cl)cc1N1C(=N)SCC1=O  14.1%
73. Cc1ccc(C)c2[nH]c(=O)c(CN(Cc3ccco3)S(=O)(=O)c3ccc4c(c3)OCCO4)cc12  14.8%
74. COCc1cc(=O)[nH]c(SC)n1  15.5%
75. Clc1ccc(Nc2ccc3ccccc3n2)cc1  15.9%
76. CCc1c(C)sc(NC(=O)/C=C/C(=O)O)c1C(N)=O  16.2%
77. CC1(C)CC(=O)C=C(Nc2ccc(O)c(C(=O)O)c2)C1  17.2%
78. CCC(C)NC(=O)c1ccc(NC(=O)C2=C(C)OCCS2)cc1 (stereo not shown)  18.4%
79. COc1ccc(NC(=O)C(C)N2C(=O)C3CC=C(Cl)CC3C2=O)cc1 (stereo not shown)  18.7%
80. CCOc1cccc(/C=N/Nc2ccc(S(=O)(=O)N(CC)CC)cn2)c1O  18.9%
81. COc1cccc(CNC(=O)COC(=O)CN2C(=O)NC3(CCCCC3C)C2=O)c1 (stereo not shown)  19.1%
82. COc1cccc(-c2c(C(=O)N/N=C/c3ccsc3)nnn2-c2nonc2N)c1  19.4%
83. O=C(Oc1c(-c2ccccc2)c(=O)n2c3c(cccc13)CC2)c1ccc(F)cc1  19.5%
84. Cc1nn(CC(=O)NCC(C)c2ccccc2)c(=O)c2cccn12 (stereo not shown)  20.7%
85. Cc1ccc(S(=O)(=O)N2CCN(C(=O)COC(=O)c3cnc(C)cn3)CC2)c(C)c1  23%
